# Measurements: PMC4336329 (PLoS ONE, 2015)
# Among all 310,000 compounds or so, about 14,000 (4.5%) showed an effect of 50% or more. Effects have a minus sign here. This is one part of the list.
# Biological target: human ether-à-go-go-related gene (hERG) potassium channel (human, UniProt Q12809)
# Test: primary screen, population patch clamp on CHO cells stably expressing hERG
# 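Also: peak tail current of the secondary pulse compared with the same well before compound.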
# Chain of human ether-à-go-go-related gene (hERG) potassium channel (Q12809 whole entry, looked up): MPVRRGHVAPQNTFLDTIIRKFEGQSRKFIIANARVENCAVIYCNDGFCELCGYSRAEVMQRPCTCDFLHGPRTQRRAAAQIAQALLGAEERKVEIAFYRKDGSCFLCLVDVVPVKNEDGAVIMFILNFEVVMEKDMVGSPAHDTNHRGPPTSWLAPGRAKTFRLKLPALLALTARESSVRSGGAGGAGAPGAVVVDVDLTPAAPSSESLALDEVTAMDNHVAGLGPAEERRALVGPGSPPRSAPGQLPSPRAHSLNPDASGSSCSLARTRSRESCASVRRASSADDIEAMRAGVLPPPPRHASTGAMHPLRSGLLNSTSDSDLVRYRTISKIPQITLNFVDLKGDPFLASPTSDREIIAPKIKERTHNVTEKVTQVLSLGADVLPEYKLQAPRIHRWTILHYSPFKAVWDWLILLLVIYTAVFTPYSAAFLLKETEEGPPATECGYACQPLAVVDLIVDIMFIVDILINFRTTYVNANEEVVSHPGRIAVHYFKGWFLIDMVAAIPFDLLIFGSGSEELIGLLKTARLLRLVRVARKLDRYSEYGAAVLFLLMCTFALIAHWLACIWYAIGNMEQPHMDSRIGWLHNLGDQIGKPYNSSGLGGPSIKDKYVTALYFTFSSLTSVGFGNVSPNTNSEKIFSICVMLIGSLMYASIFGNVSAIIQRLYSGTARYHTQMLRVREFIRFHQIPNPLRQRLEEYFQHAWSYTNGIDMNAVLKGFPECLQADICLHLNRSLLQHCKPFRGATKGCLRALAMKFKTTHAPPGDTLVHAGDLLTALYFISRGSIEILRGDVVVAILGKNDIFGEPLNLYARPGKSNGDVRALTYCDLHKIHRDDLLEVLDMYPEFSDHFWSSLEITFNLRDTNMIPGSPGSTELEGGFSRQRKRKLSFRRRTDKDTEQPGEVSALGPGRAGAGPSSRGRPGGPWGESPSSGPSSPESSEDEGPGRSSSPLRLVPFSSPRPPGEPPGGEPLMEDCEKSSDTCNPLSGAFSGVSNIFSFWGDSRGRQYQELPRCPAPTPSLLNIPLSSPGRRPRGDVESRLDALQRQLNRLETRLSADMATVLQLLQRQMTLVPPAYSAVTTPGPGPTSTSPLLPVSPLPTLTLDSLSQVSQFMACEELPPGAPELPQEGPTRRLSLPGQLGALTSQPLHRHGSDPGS
row,Structure (SMILES),"hERG current change (%, negative = inhibition) at 10uM [%]"
1,CC(=O)Nc1cccc(NC(=O)CSc2nc3ccccc3o2)c1,7.51
2,CCCc1ccc(OC(=O)c2cccs2)cc1,-1.18
3,Cc1ccc(-n2c(SCC(=O)N/N=C/c3ccccc3C(=O)O)nnc2-c2ccc(Cl)cc2)cc1,13.2
4,COc1ccc(CNC(=O)CN(Cc2ccccc2Cl)C(=O)c2csnn2)cc1,-34.8
5,COc1cc2c(-c3ccccc3)c(C)oc2cc1/C=N/NC(N)=S,20.6
6,CCc1nnc(NS(=O)(=O)c2ccc(N=Cc3c(O)n(-c4ccc(Cl)cc4)c(=O)[nH]c3=O)cc2)s1,11.8
7,COc1cc(NC(=O)C2CCC(CNc3c(N4CCC(C)CC4)c(=O)c3=O)CC2)cc(OC)c1 (centres unmarked),16.7
8,O=C(CN1CCN(S(=O)(=O)N2CCCCCC2)CC1)Nc1ccc(Br)cc1,-74.3
9,COc1ccc(CNC(=O)C2CCCN(S(=O)(=O)c3cnc[nH]3)C2)cc1 (centres unmarked),-2.81
10,CCCc1cnc(N2CCN(S(C)(=O)=O)CC2)nc1,-3.74
11,Nc1c(C(=O)Nc2ccccc2)c2nc3ccccc3nc2n1CCCN1CCOCC1,18.7
12,CCCCCC1CC(CC(=O)NC(=S)Nc2ccc([N+](=O)[O-])cc2)C(=O)O1 (centres unmarked),-0.0907
13,O=C(c1ccc2c(c1)OCO2)N1CCCN(C(=O)c2ccc3c(c2)OCO3)CC1,6.78
14,COC(=O)CC1(c2cccc3ccccc23)C(=O)c2ccccc2C1=O,12.9
15,C=CCOC(=O)C1=C(C)NC(=O)NC1c1cc2c(cc1Br)OCO2 (centres unmarked),-9.93
16,COc1ccc(-n2c(COc3ccc(C)cc3)n[nH]c2=S)cc1,20.8
17,CC1(C)CC(=O)C(C=Nc2cccnc2)=C(O)C1,14.5
18,COc1ccc(-n2nc(C(=O)O)c3ccccc3c2=O)c(OC)c1,-1.56
19,O=C(Nc1ccc2c(c1)OCCO2)C1CCCN1C(=O)Nc1ccccc1 (centres unmarked),14.2
20,Cc1ccccc1-c1nc(CS(=O)(=O)CC(=O)NCCCN2CCCC2)c(C)o1,-3.85
21,COc1ccc2c(C)cc(SCC(=O)Nc3c(C)n(C)n(-c4ccccc4)c3=O)nc2c1,-20.9
22,COC1=C/C(=C/c2c(N)n3nc(CC(=O)N4CCOCC4)sc3nc2=O)C=CC1=O,4.52

row,Structure (SMILES),"hERG current change (%, negative = inhibition) at 10uM [%]"
1,O=C(c1cccnc1)N1CCCc2ccccc21,3.12
2,Cc1ccn(S(=O)(=O)c2ccc(C(C)(C)C)cc2)n1,-14.6
3,CCOC(=O)CSc1nc(-c2ccc(OC)cc2)ns1,5.11
4,CCCCCCCCc1nc(SCC(C)=O)n[nH]1,3.83
5,Cc1ccc(S(=O)(=O)N2CCC(C(=O)Nc3ccccc3N3CCCCC3)CC2)cc1,7.81
6,O=C(CNC(=O)c1ccccc1F)Nc1ccc2c(c1)CCC2,13.7
7,CCCCn1c(N)c(N(CCOC)C(=O)c2ccc(N(C)S(=O)(=O)c3ccc(C)cc3)cc2)c(=O)[nH]c1=O,3.32
8,O=C(NCc1ccco1)c1cnn2cccnc12,6.05
9,CSCCC(NC(=O)c1ccc(C(C)(C)C)cc1)C(=O)OCC(=O)N1CCCC1=O (centres unmarked),-18.7
10,CC(C)[C@H]1COCCS(=O)(=O)N1Cc1ccccc1,21
11,CC(C)C[C@H](N)c1nnc(SCc2ccc(Cl)cc2)o1.Cl,-1.59
12,O=C(OCc1ccccc1)C1=NNC2C(=O)N(c3ccc(Br)cc3)C(=O)C12 (centres unmarked),-0.364
13,CO/N=C\C(=N\Nc1ccc(OC)cc1)C(=O)c1ccccc1,10.1
14,Cc1ccc(S(=O)(=O)NCCSc2nnnn2C)cc1,-2.53
15,C=C(C)C1CC=C(C)/C(=N/NC(=O)COc2cccc(C)c2)C1 (centres unmarked),-19.6
16,CCn1c(C(C)NC(=O)c2ccc(Cl)cc2)n[nH]c1=S (centres unmarked),-12.8
17,O=C(NCCSc1ccccc1)c1ccc(CN2CCOCC2)cc1,-10.3
18,CCc1cc(C(=O)NNC(=S)NCC2CCCO2)cs1 (centres unmarked),-18.8
19,COc1cc([C@@H]2c3cc4c(cc3[C@H](O)[C@H]3COC(=O)[C@H]23)OCO4)cc(OC)c1OC,-44.8
20,COc1cc2c(cc1NC(=S)Nc1ccccc1C)oc1ccccc12,4.75
21,CC(C)NC(=O)c1ccccc1NC(=O)Cc1ccc(Cl)cc1,-11.3
22,CSc1sc(C(=O)OC(C)C)c2c1C(=O)CC(C)(C)C2,8.83

row,Structure (SMILES),"hERG current change (%, negative = inhibition) at 10uM [%]"
1,Cn1c(CN2CCOCC2)nnc1SCc1cccc(F)c1,4.72
2,COc1ccc(NC(=O)C/C(C)=N/NC(=O)c2cnccn2)cc1Cl,12.5
3,O=C(NCC1CCCO1)C(c1cccs1)N(Cc1cccs1)C(=O)Cn1nnc(-c2cccs2)n1 (centres unmarked),-25.5
4,CC(NC(=O)c1ccc(C23CC4CC(CC(C4)C2)C3)cc1)C(=O)O (centres unmarked),19.7
5,O=C(CSc1nnc(NCc2ccccc2)s1)NC1CCS(=O)(=O)C1 (centres unmarked),10.1
6,CCOC(=O)C1CCCN(C(=O)c2cc3cc4ccc(OC)cc4nc3o2)C1 (centres unmarked),-40.1
7,Cc1cc(C(=O)NC2CCCc3c2cnn3-c2cccc(C)c2C)c(C)o1 (centres unmarked),-1.08
8,Cc1ccc(CN2C(=O)CCC2C(=O)NCc2ccc3c(c2)OCO3)cc1 (centres unmarked),-17.4
9,CCn1nnnc1NC(=O)c1cc(Cl)c(OC)c(Cl)c1,-7.3
10,Cc1cc(C(=O)Nc2cccc3cccnc23)ccc1[N+](=O)[O-],11.6
11,CN(C)S(=O)(=O)c1cccc(NC(=O)CSc2cccc3cccnc23)c1,-0.148
12,Cc1[nH]n(C)c(=O)c1[N+](=O)[O-],-16.4
13,COc1ccc(CC(=O)N(C)CC(=O)Nc2ccccc2Cl)cc1S(=O)(=O)N1CCOCC1,7.82
14,CN(C)c1ccc(S(=O)(=O)NCC(=O)NCCC2=CCCCC2)cc1[N+](=O)[O-],-6.88
15,Cc1ccc(C)c(OC(=O)c2cccc(S(=O)(=O)N3CCN(C)CC3)c2)c1,2.1
16,CC1CC(C)CN(S(=O)(=O)c2ccc3c(c2)NC(=O)C(C)C(=O)N3)C1 (centres unmarked),2.63
17,CCOc1ccc(-c2nnc(-c3cccs3)o2)cc1OCC,1.32
18,Fc1cccc(Cl)c1Cn1nnc2c(NCc3ccccn3)ncnc21,-15.7
19,O=C(CSCc1cnn(-c2ccccc2)c1-n1cccc1)NCc1ccccn1,-21.4
20,CCN(CC)CCNC(=O)C1c2cc(OC)c(OC)cc2C(=O)N(C)C1c1cccs1 (centres unmarked),-1.87
21,O=C(COC(=O)c1ccc(S(=O)(=O)N2CCCC2)cc1)NCc1ccccc1,8.07
22,O=C(O)c1cccnc1SCc1cn2cc(Cl)ccc2n1,10.7

row,Structure (SMILES),"hERG current change (%, negative = inhibition) at 10uM [%]"
1,COc1ccc(OCc2cc(C(=O)N3CCCC(CO)C3)no2)c2ccccc12 (centres unmarked),-13.8
2,Cc1cc(C)c(N2C(=NC(=O)CCCC(=O)O)SC3CS(=O)(=O)CC32)c(C)c1 (centres unmarked),16.4
3,CCc1ccc(C(=O)COC(=O)CNC(=O)CNS(=O)(=O)c2ccccc2)cc1,-16.5
4,CC(=O)NCc1ccc(C(=O)O)cc1,6.67
5,O=C(O)c1ccc2c(=O)n(-c3ccccc3)c(=S)[nH]c2c1,3.07
6,CCN(CC)C(=O)CSc1nc2cc3c(cc2c(=O)n1Cc1ccc2c(c1)OCO2)OCO3,9.13
7,COc1ccc(Nc2nc(-c3cccc([N+](=O)[O-])c3)nc3ccccc23)c(OC)c1,15
8,O=c1oc2ccccc2n1CCn1c2ccccc2c2nc3ccccc3nc21,10.7
9,COc1ccc(C)cc1NC(=O)CN(C)S(=O)(=O)c1cccs1,-10.3
10,CC(Sc1nn(-c2ccc(F)cc2)c(=S)s1)C(=O)c1c(N)n(C)c(=O)n(C)c1=O (centres unmarked),6.76
11,Cc1[nH]n(-c2ccccc2)c(=O)c1C=Nc1ccc(S(=O)(=O)N(C)C)cc1,9.37
12,Cc1ccc2cc(CN(Cc3cccs3)C(=O)c3ccco3)c3nnnn3c2c1C,0.583
13,CC(C(=O)OCC(=O)c1ccc([N+](=O)[O-])cc1)N1C(=O)C2C3CCC(C3)C2C1=O (centres unmarked),-54
14,N#Cc1ccc2ccn(CC(=O)N3CCCc4ccccc43)c2c1,-7.51
15,COc1ccc(NC(=O)CN(C)C(=O)c2cn(-c3ccccc3)nc2-c2cccs2)cc1,-5.02
16,COc1ccc(Cc2noc(-c3ccc([N+](=O)[O-])cc3)n2)cc1OC,3.29
17,Cn1c(CO)nc2cc(N)ccc21,1.22
18,CCCOC(=O)C1=C(C)NC2=C(C(=O)C(C(=O)OC)C(C)C2)C1c1ccc(N(C)C)cc1 (centres unmarked),-17.4
19,CCC(=O)OC1(C)C(=O)C=C2C=C(CCCC(=O)OC)OC=C2C1=O (centres unmarked),11.5
20,Cc1ccc2nc(-c3ccc(-c4cccc(Cl)c4)cc3)c(NCc3ccccc3)n2c1.O=C(O)C(F)(F)F,-1.52
